Reference: the RNAGym collection of RNA variant scans (doi:10.7554/elife.90254)
The source gives no read counts; variants with many changes may rest on few reads.

B1: LINE1-mini (parent)
chain: GGCAGAGCUCAACACAGCGUGGCAAAGUGGCUGUGGCUAGACUGCC

Variants of: B1
Assay: self-cleavage, relative activity (ratio to wild type); higher = more cleavage; in vitro, sequencing; the parent is a self-cleaving ribozyme

Question: With G5U A6U U28C as the variant, how does the self-cleavage read?
Answer: 0.17

Question: With G5C G17U G27A G30A G44U as the variant, how does the self-cleavage read?
Answer: 0.03

Question: Which self-cleavage does the source give for G5C A39U G40C here?
Answer: 0.05

Question: Which self-cleavage does the source give for G5C G7A C8G C15U G30U G35U A39U here?
Answer: 0.32

Question: With G5C G17U C18A G44U as the variant, how does the self-cleavage read?
Answer: 0.03

Question: Which self-cleavage does the source give for G5C G7U C10U A24U G30U C46A here?
Answer: 0.04

Question: Which self-cleavage does the source give for G5U A11C C13A G30U G40C here?
Answer: 0.02

Question: Which self-cleavage does the source give for G5C U20C A41G here?
Answer: 0.07

Question: For G5U A6G C8U G27U, which self-cleavage is on record?
Answer: 0.77

Question: With G5C C13A C15A G21A as the variant, how does the self-cleavage read?
Answer: 0.05

Question: Which self-cleavage does the source give for G5C U20A A26C G35A here?
Answer: 0.1

Question: With G5C U38A C45U as the variant, how does the self-cleavage read?
Answer: 0.05

Question: Which self-cleavage does the source give for G5C C10A C15U G17A A24G A41C here?
Answer: 0.03

Question: Which self-cleavage does the source give for G5C C8G U34C here?
Answer: 0.13

Question: Which self-cleavage does the source give for G5C G36C G44U here?
Answer: 0.01

Question: Which self-cleavage does the source give for G5C C10A G21C C46A here?
Answer: 0.03

Question: Which self-cleavage does the source give for G5C G7A C10G C23G U38G A41C here?
Answer: 0.01

Question: With G5C U9G C37A as the variant, how does the self-cleavage read?
Answer: 0.81

Question: With G5C G29U C31U G40A C42A as the variant, how does the self-cleavage read?
Answer: 0.04

Question: Which self-cleavage does the source give for G5C U38C A39G C45A here?
Answer: 0.03

Question: Which self-cleavage does the source give for G5U A6G G19A C23A C31G here?
Answer: 0.03

Question: For G5C A39U G44C, which self-cleavage is on record?
Answer: 0.06

Question: Which self-cleavage does the source give for G5U A6U A24U G27U U38A here?
Answer: 0.06

Question: Which self-cleavage does the source give for G5C C10G C45U C46A here?
Answer: 0.02

Question: With G5C U9A G40C as the variant, how does the self-cleavage read?
Answer: 0.41

Question: For G5U A12C A24U A41G, which self-cleavage is on record?
Answer: 0.04

Question: For G5C C37G G44C, which self-cleavage is on record?
Answer: 0.06

Question: Which self-cleavage does the source give for G5C C13G U34C here?
Answer: 0.03

Question: With G5C G35U C46U as the variant, how does the self-cleavage read?
Answer: 0.02

Question: With G5C U28C C42A as the variant, how does the self-cleavage read?
Answer: 0.06

Question: Which self-cleavage does the source give for G5C U9C G21C here?
Answer: 0.01

Question: Which self-cleavage does the source give for G5C U9C G21U here?
Answer: 0.03

Question: For G5C G7C U28G G40A, which self-cleavage is on record?
Answer: 0.04

Question: Which self-cleavage does the source give for G5U A6U G19A here?
Answer: 0.52

Question: Which self-cleavage does the source give for G5C C8G C10U C46U here?
Answer: 0.08

Question: With G5C C13U A24C U38C U43G as the variant, how does the self-cleavage read?
Answer: 0

Question: For G5C G7U G27C, which self-cleavage is on record?
Answer: 0.04

Question: For G5C U34A C45A, which self-cleavage is on record?
Answer: 0.01

Question: For G5U A11C G17A G30U G40C, which self-cleavage is on record?
Answer: 0.01

Question: With G5C C15U C18A G27U G33C as the variant, how does the self-cleavage read?
Answer: 0.06

Question: Which self-cleavage does the source give for G5C C8U A11C U28A A39C here?
Answer: 0.01

Question: Which self-cleavage does the source give for G5C C10U U32C U34C G36C here?
Answer: 0.02

Question: Which self-cleavage does the source give for G5C U9A U20A C23G A24G here?
Answer: 0.03

Question: With G5C G29C G44U as the variant, how does the self-cleavage read?
Answer: 0.12

Question: For G5C G33C C37U, which self-cleavage is on record?
Answer: 0.04

Question: Which self-cleavage does the source give for G5C G17U C31U here?
Answer: 0.01

Question: Which self-cleavage does the source give for G5C G27U G44U here?
Answer: 0.05

Question: Which self-cleavage does the source give for G5C G21C G22U here?
Answer: 0.02

Question: With G5C G17C G36U as the variant, how does the self-cleavage read?
Answer: 0.07

Question: For G5C G30A G36C, which self-cleavage is on record?
Answer: 0.06

Question: With G5C G29C U38A A39G A41U as the variant, how does the self-cleavage read?
Answer: 0.02

Question: Which self-cleavage does the source give for G5C C13G A16C here?
Answer: 0.01

Question: Which self-cleavage does the source give for G5C C10G C23G C37U U38G C45U here?
Answer: 0.01

Question: With G5C G27U G29A U43A as the variant, how does the self-cleavage read?
Answer: 0.02

Question: For G5C C37A A41C, which self-cleavage is on record?
Answer: 0.09

Question: For G5C U20C A25C, which self-cleavage is on record?
Answer: 0.03

Question: With G5U A6C C18U C46G as the variant, how does the self-cleavage read?
Answer: 0.02

Question: Which self-cleavage does the source give for G5C C23U G30U C31U G33C G40A C46U here?
Answer: 0.01

Question: For G5C C42U U43A, which self-cleavage is on record?
Answer: 0.08

Question: With G5C U9G U20C G22A A39C as the variant, how does the self-cleavage read?
Answer: 0.01

Question: Which self-cleavage does the source give for G5U A11U C42U here?
Answer: 0.03

Question: Which self-cleavage does the source give for G5C C10U C23U G29A here?
Answer: 0.04

Question: For G5C G33A G40C, which self-cleavage is on record?
Answer: 0.08

Question: Which self-cleavage does the source give for G5C C18G C37A U43G here?
Answer: 0.06

Question: Which self-cleavage does the source give for G5C G27U U32A here?
Answer: 0.06

Question: With G5C C31G G35U as the variant, how does the self-cleavage read?
Answer: 0.02

Question: With G5U A6C A39C as the variant, how does the self-cleavage read?
Answer: 0

Question: With G5C C10A A24U C45G as the variant, how does the self-cleavage read?
Answer: 0.03

Question: Which self-cleavage does the source give for G5C C10A G29U here?
Answer: 0.05

Question: For G5C C18U G27C G29C U34G, which self-cleavage is on record?
Answer: 0.11

Question: With G5C G17C C18A G30A G35U as the variant, how does the self-cleavage read?
Answer: 0.03

Question: Which self-cleavage does the source give for G5C C10A G19A G22A here?
Answer: 0.04

Question: With G5C U32G G40A as the variant, how does the self-cleavage read?
Answer: 0.02

Question: For G5C C18A G30U G33U, which self-cleavage is on record?
Answer: 0.01

Question: With G5U A11U G36A U38A A41C C42G U43A as the variant, how does the self-cleavage read?
Answer: 0

Question: With G5C C8U G22U G30C as the variant, how does the self-cleavage read?
Answer: 0.06

Question: With G5C G33U U43A as the variant, how does the self-cleavage read?
Answer: 0.02

Question: Which self-cleavage does the source give for G5C U28G C37U here?
Answer: 0.02

Question: For G5C G27C G29C, which self-cleavage is on record?
Answer: 0.02

Question: For G5C U9A A26C G33A U34A C46A, which self-cleavage is on record?
Answer: 0.09

Question: With G5C G17A G19C G36A as the variant, how does the self-cleavage read?
Answer: 0.03

Question: With G5C C13U A16G G35U U43A as the variant, how does the self-cleavage read?
Answer: 0.01

Question: Which self-cleavage does the source give for G5C G7U U9G U34G here?
Answer: 0.05
